# In the supplement of paper PMC8183993:
# Where “and” joins values, the source holds several entries; their conditions need not be identical. Identical values can stand only once. Counter-ions that a name gives are not always drawn. ± gives the standard deviation of the averaged measurements. In all, about 3,200 compounds were measured (“nuclei count (viability) relative to DMSO”: median about 99, lowest 2% from about 16 on). Some of the results follow.
# Tested on: U2OS
# Experiment: nuclei count (viability) relative to DMSO (% of DMSO); higher = more viable cells
# Conditions: 10 µM; 24 h
# Method: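 Primary image-based screen in U2OS cells: compounds at 10 uM for 24 h, then a 1 h o-propargyl-puromycin (OPP) pulse, click labelling, and high-throughput microscopy. Mean cytoplasmic OPP intensity and nuclei count were normalised to DMSO wells within each plate (DMSO = 100) and averaged over triplicate plates.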
row,SMILES,nuclei count
1,Cc1c(NC(=O)N2CCOCC2)ccc2c1c1ccccc1n2C(C)C,94.6
2,O=C(O)c1ccc(-c2ccc3cc(O)c(C45CC6CC(CC(C6)C4)C5)cc3c2)cc1,105
3,"Cc1c(C2CCN(CCc3ccccc3)CC2)noc1-c1ccc(Cl)cc1 [L-741,742 hydrochloride]",102
4,C[C@H](NC(=O)/C(C#N)=C/c1cccc(Br)n1)c1ccccc1,7.49 ± 1.2
5,CC(C)c1ccc(NC(=O)Cn2cnc3c2c(=O)n(C)c(=O)n3C)cc1,103
6,CCOC(=O)CCNc1cc(N2CCc3ccccc3CC2)nc(-c2ccccn2)n1,64.1 and 62.6
7,COc1ccc2[nH]c([S+]([O-])Cc3ncc(C)c(OC)c3C)nc2n1 (centres undefined) [Tenatoprazole],92.9
8,CN(C)CCOC(c1ccccc1)c1ccccc1 [Diphenhydramine hydrochloride],106
9,NC(Cc1cc(I)c(Oc2cc(I)c(O)c(I)c2)c(I)c1)C(=O)O (centres undefined) [Thyroxine (L)],105
10,OC(CN1CCC(Cc2ccc(F)cc2)CC1)c1ccc(Cl)cc1 (centres undefined) [Eliprodil],103
11,CN(C)CC/C=C1/c2ccccc2Sc2ccc(Cl)cc21 [Chlorprothixene hydrochloride],106
12,CCCS(=O)(=O)c1nc(NC2CC2)cc(-c2ccc3c(ccn3C3CC(C)(C)NC(C)(C)C3)c2)n1,8.4
13,Cn1cc(CNCC2CCN(c3ncc(C(=O)NO)cn3)CC2)c2ccccc21,18.9
14,CC(=O)[C@H]1CC[C@H]2[C@@H]3CCC4=CC(=O)CC[C@]4(C)[C@H]3CC[C@]12C [Progesterone],101 ± 6.7
15,CC(=O)[C@H]1CC[C@H]2[C@@H]3CCC4=CC(=O)CC[C@]4(C)[C@H]3CC[C@]12C [Progesterone (Prometrium)],108
16,Nc1nc(F)nc2c1ncn2[C@@H]1O[C@H](CO)[C@@H](O)[C@@H]1O [Fludarabine (Fludara)],106
17,Nc1nc(F)nc2c1ncn2[C@@H]1O[C@H](CO)[C@@H](O)[C@@H]1O [Fludarabine],96.9 ± 8
18,CC[C@H]1OC(=O)[C@H](C)[C@@H](O[C@H]2C[C@@](C)(OC)[C@@H](O)[C@H](C)O2)[C@H](C)[C@@H](O[C@@H]2O[C@H](C)C[C@H](N(C)C)[C@H]2O)[C@](C)(O)C[C@@H](C)/C(=N\OCOCCOC)[C@H](C)[C@@H](O)[C@]1(C)O [Roxithromycin],103
19,CC[C@H]1OC(=O)[C@H](C)[C@@H](O[C@H]2C[C@@](C)(OC)[C@@H](O)[C@H](C)O2)[C@H](C)[C@@H](O[C@@H]2O[C@H](C)C[C@H](N(C)C)[C@H]2O)[C@](C)(O)C[C@@H](C)/C(=N\OCOCCOC)[C@H](C)[C@@H](O)[C@]1(C)O [Roxithromycin (Roxl-150)],102
20,O=C(NCCS(=O)(=O)c1ccc(C(F)(F)F)cn1)c1ccc(Cl)cc1,105
21,CC(C)CC(=O)Nc1n[nH]c2c1CN(C(=O)C1CCN(C)CC1)C2(C)C,41.9
22,C=C1CC[C@H](O)C/C1=C/C=C1\CCC[C@]2(C)[C@@H]([C@H](C)CCCC(C)(C)O)CC[C@@H]12 [25-Hydroxyvitamin D3],104

row,SMILES,nuclei count
1,C=C1CC[C@H](O)C/C1=C/C=C1\CCC[C@]2(C)[C@@H]([C@H](C)CCCC(C)(C)O)CC[C@@H]12 [Calcifediol],105
2,COc1ccc(NC(=O)c2cc(OCCCN(C)C)nn2Cc2ccccc2)cc1 [CFM 1571 hydrochloride],99
3,OC(c1ccccc1)C1CCN(CCc2ccccc2)CC1 (centres undefined),99.4
4,Nc1nc(=O)c2nc(CNc3ccc(C(=O)N[C@@H](CCC(=O)O)C(=O)O)cc3)cnc2[nH]1 [Folic acid],102
5,CC(=O)N[C@@H](CC(C)C)C(=O)O [N-Acetyl-L-leucine],107
6,Nc1nc(Cl)nc2c1ncn2[C@@H]1O[C@H](CO)[C@@H](O)[C@@H]1F [Clofarabine],54.8
7,Cc1cc(C)c(N(Cc2ccccc2)S(=O)(=O)c2ccc(OCCNC(=O)c3cc4ccccc4o3)cc2)c(C(=O)NO)c1,94.5
8,COc1ccc(-c2cc(=O)c3c(O)cc(O)cc3o2)cc1O [Diosmetin (Luteolin 4-methyl ether)],96.1
9,CN(C)Cc1c(C(=O)NCCOc2ccc(C(=O)NO)cc2)oc2ccccc12,28.6
10,Nc1nc(=S)c2ncn([C@@H]3O[C@H](CO)[C@@H](O)[C@H]3O)c2[nH]1 [Thioguanosine],50.1
11,O=C1CN2Cc3c(ccc(Cl)c3Cl)N=C2N1 [Anagrelide HCl],102
12,C[C@H](NC(=O)c1sccc1OCc1ccc(Cl)cc1)c1ccccc1,101
13,CO[C@H]1/C=C/O[C@@]2(C)Oc3c(C)c(O)c4c(c3C2=O)C2=NC3(CCN(CC(C)C)CC3)NC2=C(NC(=O)/C(C)=C\C=C\[C@H](C)[C@H](O)[C@@H](C)[C@@H](O)[C@@H](C)[C@H](OC(C)=O)[C@@H]1C)C4=O [Rifabutin (Mycobutin)],107
14,CO[C@H]1/C=C/O[C@@]2(C)Oc3c(C)c(O)c4c(c3C2=O)C2=NC3(CCN(CC(C)C)CC3)NC2=C(NC(=O)/C(C)=C\C=C\[C@H](C)[C@H](O)[C@@H](C)[C@@H](O)[C@@H](C)[C@H](OC(C)=O)[C@@H]1C)C4=O [Rifabutin],103
15,O=c1cc(-c2ccc(O)cc2)oc2cc(O)cc(O)c12 [Apigenin],95.3 ± 2.9
16,c1cnc2cc3c(cc2n1)[C@@H]1CNC[C@H]3C1 [Varenicline tartrate],106
17,C[C@@H](N)[C@H]1CC[C@H](C(=O)Nc2ccncc2)CC1,106 and 101
18,O=C(Cn1ccnc1[N+](=O)[O-])NCCO [Etanidazole],76.9
19,CCc1cc(C(C)=O)c(O)cc1OCCCCCC(C)(C)c1nn[nH]n1,98.6
20,COc1c(O[C@@H]2O[C@H](CO)[C@@H](O)[C@H](O)[C@H]2O)cc2c(c1OC)-c1ccc(SC)c(=O)cc1[C@@H](NC(C)=O)CC2 [Thiocolchicoside],113
21,O=C(CCCCCCNC(=O)c1cnc(N(c2ccccc2)c2ccccc2)nc1)NO [Rocilinostat (ACY-1215)],47.1
22,O=c1ncccn1[C@@H]1O[C@H](CO)[C@@H](O)[C@H]1O [Zebularine],99.3 ± 1.6
